The results in this text go back to ChEMBL document CHEMBL4888484, “Replenishing the malaria drug discovery pipeline: Screening and hit evaluation of the MMV Hit Generation Library 1 (HGL1) against asexual blood stage Plasmodium falciparum ,using a nano luciferase reporter read-out” (2022).

Screen size: about 150,000 compounds; about 540 (0.36%) showed an effect of 50% or more. This is one part of the list.

This test has as its system Plasmodium falciparum. Nature of the test: Primary screen in NF54 nanoGlo assay, in single point, at 2uM, 72h; a lower Z score goes with more inhibition. It is filed as functional, Erythrocyte. The note with it: timepoint 72 hour.
For `CC(C)c1nccc(CN(C)CCn2cccn2)n1`, the % Inhibition (in general, the drop in the measured response relative to a control, in per cent) was -10% and the Z score was determined as 1.1.

`O=C(Cc1ccccc1)Nc1ccc(Cc2nnc3ccccn23)cc1`: the “% Inhibition” value is -23% and the Z score worked out at 2.15.

Turning to `COc1cccc(CO[C@@H]2CN(C(=O)Cc3cc(F)cc(F)c3)CC(=O)N(Cc3ccccn3)C2)c1`, the “% Inhibition” value is on record as -11% and the Z score is 1.4.

Consider `CC(C)c1cc([C@@H]2CCCN2S(=O)(=O)c2cccc3nsnc23)no1`, for which the “% Inhibition” value was -4% and the Z score came to 0.53.

Regarding `Cc1cc2c(cc(C(=O)N3CCC(C(=O)NCCc4ccc(Cl)cc4)CC3)n2Cc2c(F)cccc2Cl)o1`, the “% Inhibition” value is -9% and the Z score is recorded as 1.1.

With `CN1C(=O)c2ccc(NC(=O)c3sc4ccccc4c3Cl)cc2C1=O`, the “% Inhibition” value was -14% and the Z score is reported as 2.57.

Turning to `C[C@@H](O)CNC(=O)NCCN1CCc2c(Cl)cccc2C1`, the “% Inhibition” value is reported as -6% and the Z score stood at 0.77.

Regarding `CS(=O)(=O)NCCNC(=O)NCc1nc(Cc2cccs2)no1`, the “% Inhibition” value is given as -11% and the Z score is 1.63.

With `C[C@@H](CNC(=O)Nc1ccn(CC(F)F)n1)N1CCOCC1`, the “% Inhibition” value came to 2% and the Z score was -0.3.

As to `C[C@H]1CN(C(=O)COc2cc(Cl)c(Cl)cc2Cl)CCC1=O`, the “% Inhibition” value is on record as 31% and the Z score is given as -3.52.

Consider `Cc1noc(-c2ccc(S(=O)(=O)NCCOc3ccccc3F)o2)c1C`, for which the “% Inhibition” value amounted to 2% and the Z score is recorded as -0.29.

`CCOC[C@H]1CCN(C(=O)c2coc3ccccc23)C1`: the “% Inhibition” value came to 4% and the Z score is given as -0.63.

With `CC(C)[C@H]1CN(C(=O)Nc2ccc(F)cc2F)C[C@@H]1N(C)C`, the “% Inhibition” value is given as -6% and the Z score was found to be 1.06.

Consider `CC(C)(C)OC(=O)NCc1ccc(C#N)c(F)c1`, for which the “% Inhibition” value was -2% and the Z score is reported as 0.32.

Regarding `O=C(NS(=O)(=O)CC1CCOCC1)c1conc1-c1ccc(Cl)cc1`, the “% Inhibition” value is -14% and the Z score amounted to 1.36.

Take `Cc1ccc(-c2ccc(=O)n(CC(=O)NC[C@H]3CCCO3)n2)c(C)c1`: the “% Inhibition” value is listed as 0% and the Z score came out at 0.08.

In the case of `Cc1ncc(C(=O)N[C@H]2CC23CCOCC3)n1C`, the “% Inhibition” value was -10% and the Z score worked out at 0.99.

For `O=C(Nc1nc(-c2ccccc2)cs1)C1CC2C=CC1C2` (centres undefined), the “% Inhibition” value is listed as 8% and the Z score is -1.04.

Take `Cc1nnc(CNC(=O)c2ccc(OC(C)C)cc2Cl)s1`: the “% Inhibition” value is reported as -2% and the Z score is on record as 0.34.

For the molecule `Cc1cccc(NC(=O)N2CCC[C@H](Cn3c(C4CC4)nc4cccnc43)C2)c1C`, the “% Inhibition” value is reported as -15% and the Z score was determined as 2.31.

`C[C@@H](CNC(=O)COC1CCCC1)Oc1ccccc1`: the “% Inhibition” value is reported as -5% and the Z score turned out to be 0.54.

On to `Cc1cc(C)cc(C(=O)N2CCN3CCOC[C@]3(CO)C2)c1`, for which the “% Inhibition” value is -19% and the Z score was 2.05.

Consider `CN(C(=O)[C@@H]1C[C@H]1c1cnn(C)c1)c1cccc2ncccc12`, for which the “% Inhibition” value is given as -31% and the Z score was 3.69.

Consider `Cc1ccc(NC(=O)C[C@H]2COc3ccc(Cl)cc3NC2=O)cc1C`, for which the “% Inhibition” value is -14% and the Z score is listed as 1.7.

For the molecule `Cc1ccc(F)c(CC(=O)N2CCO[C@@H](COCC3CC3)C2)c1`, the “% Inhibition” value was determined as 2% and the Z score is -0.37.

With `Cc1nnc(NC2CCCCCCC2)[nH]c1=O`, the “% Inhibition” value was -1% and the Z score is given as 0.19.

Turning to `CCOC(=O)c1[nH]c(CN(Cc2ccc(OC)cc2)S(=O)(=O)c2ccc(Cl)cc2)c(C)c1C`, the “% Inhibition” value is reported as 2% and the Z score is recorded as -0.19.

For `CC(=O)c1cccc(NC(=O)Cn2c(=O)n(CCc3ccccc3)c(=O)c3ccccc32)c1`, the “% Inhibition” value is reported as 36% and the Z score is on record as -4.11.

In the case of `CC(C)(C)C1CCC(CC(=O)O)(n2cnnn2)CC1` (centres undefined), the “% Inhibition” value is recorded as 0% and the Z score was -0.02.

On to `O=C(c1cc(Cl)cc(Cl)c1)N1CCN(c2nc(CN3CCN(c4ccccc4F)CC3)cc(=O)[nH]2)CC1`, for which the “% Inhibition” value is -5% and the Z score is 0.74.

Regarding `CCN(Cc1ncc(C)o1)c1cccc(CO)c1`, the “% Inhibition” value was -15% and the Z score came out at 1.37.

With `CC1NC(=O)CCC1NC(=O)N1CCCC1(C)C` (centres undefined), the “% Inhibition” value is -7% and the Z score stood at 0.93.

Take `COc1ccc(C(=O)N2CCCC2)c(OC2CCN([C@@H](C)CCc3ccccc3)CC2)c1`: the “% Inhibition” value is given as -10% and the Z score stood at 1.52.

For the molecule `CCOC(=O)[C@]1(F)CN(C(=O)c2nc(C)oc2C)CC12COC2`, the “% Inhibition” value is -6% and the Z score is recorded as 0.69.

Consider `O=C([C@@H]1CN(S(=O)(=O)c2ccccc2Cl)CCO1)N1CCC(Oc2ccc(Cl)cn2)CC1`, for which the “% Inhibition” value amounted to 1% and the Z score was -0.16.

Take `Cc1noc(-c2ccccc2Cl)c1C(=O)N[C@@H](C)c1ccccc1`: the “% Inhibition” value is recorded as -9% and the Z score stood at 1.22.

As to `Cc1nc(Nc2ccc(F)cc2)nc2c1nnn2-c1ccc(F)cc1`, the “% Inhibition” value was 28% and the Z score is recorded as -3.75.

With `Cc1cc(Cl)c2ccccc2c1NC(=O)NC1CCN2CCCCC12` (centres undefined), the “% Inhibition” value is listed as -4% and the Z score was 0.82.

As for `O=S(=O)(Nc1ccc(Br)c(C(F)(F)F)c1)c1cccc(-n2cnnn2)c1`, the “% Inhibition” value is recorded as -2% and the Z score amounted to 0.21.

As to `CCOCCNC(=O)c1cn2cc(-c3ccccc3Cl)n(C)c(=O)c2n1`, the “% Inhibition” value is reported as -4% and the Z score is reported as 0.71.

Turning to `CN(C(=O)c1cnccn1)C1CCCCCC1`, the “% Inhibition” value stood at 0% and the Z score is 0.01.

Turning to `CCOC(=O)N1CCN(C(=O)c2cccn3c(=O)c4ccc(Cl)cc4nc23)CC1`, the “% Inhibition” value is on record as -3% and the Z score was 0.4.
